Results: PubChem BioAssay AID1508623 (National Center for Advancing Translational Sciences (NCATS), 2021)
Screen size: about 48,000 compounds; about 450 (0.94%) were called active. Inconclusive results (about 19%) are left out. Calls come from the whole dose curve; as a rule, active = well fitted inhibition curve with a large enough effect; inconclusive = small, poorly fitted or top-dose-only effect; inactive = no such curve, though single readings can be large or run the other way. The list shows a part of the results.

Assay: Primary qHTS for Identification of Small Molecule Inhibitors of Huntingtin Promoter Activity; note: nearly all actives have a fitted effect of over 50% in size
Details: HEK293 HTT promoter firefly luciferase reporter (activity 0% = vehicle and -100% = no light), 24 h; series mostly up to 57.5 µM; activity change, negative = inhibition: at the top concentration
Outline: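 Luminescence was read after Dual-Glo reagent and a 10 min room-temperature incubation. Values were normalized to vehicle (0% activity) and zero RLU (-100% activity). Reporter HEK293 cells had been exposed to compounds (up to 57.5 uM final) for 24 h.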

Activity change, negative = inhibition, inactive:
Cc1cccc(-n2ccnc2SCC(=O)Nc2cccc3ccccc23)c1 -23.9%
Cc1cc(C)cc(OCCSc2nc3ccc(NC(=O)c4ccc5c(c4)OCO5)cc3s2)c1 -19.8%
O=C(COc1ccccc1Cl)Nc1ccc(OCc2cc(=O)n3ccsc3n2)cc1 -6.73%
COc1ccc(NC(=O)Cn2cc(S(=O)(=O)N3CCC(C)CC3)c3ccccc3c2=O)cc1Cl -16.6%
COc1ccc2c(c1)c1c(c(=O)n(-c3ccc(C)cc3)c(=O)n1CC(=O)c1ccc(Cl)cc1)n2C -1.16%
Cc1ccc(C)c(CNS(=O)(=O)c2ccc3c(c2)C(C)(C)C(=O)N3C)c1 -21.3%
CC1CCN(S(=O)(=O)c2ccc3c(c2)N(CC(=O)NCCN(C)C)C(=O)CO3)CC1 -6.46%
CCOc1ccc(C(=O)OCCN(CC)CC)cc1 6.11%
CCOc1ccc(NC(=O)c2ccc3[nH]c(C)cc(=O)c3c2)cc1 -7.58%
COc1ccc2c(CNCCc3ccccc3C)c(C(=O)O)n(Cc3ccccc3C)c2c1 3.08%
CCOC(=O)c1c(S(=O)(=O)N2CCCC(C(=O)NCc3ccc(F)cc3)C2)c(C)n(CC)c1C (stereo unspecified) -12.6%
Cc1ccc2c(c1)cc1c(=O)n(CC(=O)N(C)c3ccccc3)nc(C)n12 -3.03%
COc1cccc(-c2nnc(SCC(=O)N3CCCCC3)o2)c1 51.6%
O=C(OCc1cc(=O)n2nc(-c3cccs3)sc2n1)c1cccc(Cl)c1 -1.81%
OC1CCC(Nc2ncc3nc(Nc4c(F)cc(F)cc4F)n([C@@H]4CCOC4)c3n2)CC1 (stereo partly specified) -5.32%
CCOC(=O)c1cccc(NC(=O)c2ccc3c(c2)nnn3CC)c1 -18.2%
Cc1ccc(C)c(Cn2c(=O)n(CC3CCC(C(=O)N4CCOCC4)CC3)c(=O)c3sccc32)c1 (stereo unspecified) 1.84%
Cc1ccc(NC(=O)Cn2c(=O)c(C(F)(F)F)nc3ccccc32)cc1C 16.1%
CCOC(=O)c1ccccc1NC(=O)Cn1nnc2sc3c(c2c1=O)CCCC3 4.38%
Cc1ccc(C(C(=O)NC2CCCCC2)N(C)Cc2ccccc2)cc1 (stereo unspecified) -9.64%
Cc1oc2c(c1C(=O)Nc1ccc(F)c(F)c1)C1=NCCN1C=N2 -9.04%
CCc1cccc(CC)c1NC(=O)CCS(=O)(=O)c1ccc(Br)s1 -10.8%
CCOC(=O)c1ccccc1Nc1nc2ccc(C)cc2n2nnnc12 2.8%
Cc1cccc(C)c1NC(=O)c1nc(S(C)(=O)=O)ncc1N(Cc1ccc(C(C)(C)C)cc1)Cc1ccco1 -32.7%
Cn1cc(-c2cc3n(n2)CCC(=O)N3CCCC(=O)NCc2ccc(F)cc2)c2ccccc21 -24.5%
CCOc1ccc(NC(=O)c2oc3ccccc3c2NC(=O)C2CCCCC2)cc1 -11.9%
Cc1ccc(NC(=O)CSc2nc3nc(C)c(Cc4ccccc4)c(C)n3n2)cc1 3.64%
CC(C)CNC(=O)N1CCN(S(=O)(=O)c2ccc3c(ccn3C)c2)CC1 -31.9%
Cc1ccc2oc3c(c(=O)c2c1)C(c1ccccc1F)N(c1ccccn1)C3=O (stereo unspecified) -13.6%
COc1ccc(Cn2ccnc2SCC(=O)Nc2ccc3c(c2)OCO3)cc1 -23%
COc1ccc(-c2cc(C(F)(F)F)n3nc(C(=O)Nc4cc(C(F)(F)F)ccc4Cl)cc3n2)cc1OC -6.83%
Cc1ccc(NC(=O)N2CC3CCCN3c3ccccc32)cc1C (stereo unspecified) -31.8%
COc1ccc(C(=O)Nc2ccc(NC(=O)c3cccs3)cc2)cc1OC -13.7%
Cc1cccc(C(=O)NCC(c2cccs2)S(=O)(=O)c2cccs2)c1 (stereo unspecified) -18.1%
Cc1ccc(-c2nc3n(n2)C(c2ccccc2Cl)C=C(c2ccc(Cl)cc2)N3)cc1 (stereo unspecified) 5.82%
CC1CCN(S(=O)(=O)c2ccc3c(c2)CCN3C(=O)Nc2cccc(Br)c2)CC1 -12%
CCOC(=O)c1ccc(CN(Cc2ccc(C)cc2)S(=O)(=O)c2ccc(F)c(C(=O)Nc3ccc(C)c(F)c3)c2)cc1 -22.7%
Cc1ccc(S(=O)(=O)NC2(C(F)(F)F)NC(=O)N(c3ccc(F)cc3)C2=O)cc1 (stereo unspecified) -12.6%
CCOCCc1nn2c(=O)cc(COC(=O)c3ccccc3NC(=O)c3ccccc3F)nc2s1 4.57%
CCOc1ccc(C(=O)c2cn(CC(=O)Nc3ccc(OC)cc3)c3cc4c(cc3c2=O)OCO4)cc1 -1.53%
O=C(NCC(c1ccc2c(c1)OCO2)N1CCN(c2ccccc2)CC1)C(=O)Nc1ccc(F)cc1 (stereo unspecified) 72.1%
CCOC(=O)c1c(C)[nH]c(C)c1S(=O)(=O)N1CCCC(C(=O)Nc2ncccc2C)C1 (stereo unspecified) 26.7%
CC(C)CCn1c(=O)c2cccnc2n(CC(=O)Nc2ccccc2)c1=O -18.2%
CCS(=O)(=O)N1CC(=O)N(c2cccc(Cl)c2)C(C)(C(=O)NC2CCCCCC2)C1 (stereo unspecified) -17.1%
Cc1oc(-c2ccc(C(=O)NCCC(C)C)cc2)nc1CS(=O)(=O)c1ccccc1 -2.9% [at 11.5 µM]
COC(=O)c1sccc1S(=O)(=O)N(CC(=O)NCc1ccc(C)cc1)c1ccccc1 -12.4%
N#Cc1c[nH]n2c(NC3CCCC3)c(-c3cccc(Br)c3)nc12 -19.7%
CCOCCCn1c(=N)c(C(=O)NC(C)c2ccccc2)cc2c(=O)n3cc(C)ccc3nc21 (stereo unspecified) 6.15%
CCc1cccc(CC)c1NC(=O)CN(CC(=O)O)CC(=O)O 2.5%
Cc1ccn2c(NC(=O)c3cccc(Cl)c3)c(-c3ccccc3)nc2c1 5.91%
CCCC(=O)N1CCc2cc(OC)c(OC)cc2C1COc1ccccc1OC (stereo unspecified) -21.1%
CCOC(=O)Cc1cc(C(=O)Nc2ccc(Br)cc2)sc1-c1ccc(C)cc1 -13.6%
Cc1nc2sc(C)c(C)n2c(=O)c1S(=O)(=O)N1CCN(c2ccccc2F)CC1 0.759%
Cc1cc(C)cc(OCC(=O)Nc2nonc2-c2ccc(Br)cc2)c1 -18%
Cc1ccc2c(Sc3ccc(Cl)cc3)c(C(=O)NCCC(C)C)[nH]c2c1 -16.8%
Cc1c(C(=O)N(Cc2ccc(N(C)C)cc2)CC2CCCO2)oc2ccccc12 (stereo unspecified) -0.695%
CCc1nnc(SCc2nc(-c3ccccc3Cl)oc2C)c2cc3sc(C)cc3n12 -2.31%
O=C(Nc1nc2c(F)cccc2s1)c1ccc(S(=O)(=O)N2CCOCC2)cc1 -16.5%
COc1ccc2[nH]cc(CCNC(=O)Nc3ccccc3)c2c1 -9.58%
COc1ccc(CN(C(=O)c2ccccc2F)C2CCS(=O)(=O)C2)cc1 (stereo unspecified) -12.5%
Cc1ccc(NC(=O)CN2C(=O)c3cccnc3Sc3ccccc32)cc1C 35.5%
CCCN(Cc1cccs1)C(=O)Nc1cc(C)cc(C)c1 -9.3%
Cc1nn(C)c2c1c(-c1ccccc1)cc(=O)n2Cc1ccc(F)cc1Cl -18.2%
CCN(CC)C(=O)Cn1c(=O)n(-c2ccc(Cl)cc2)c(=O)c2c3c(sc21)CCCCC3 -9.48%
COc1ccc(-c2nc3ccccc3o2)cc1NC(=O)c1cccc2c(Cl)cccc12 5.05%
CCOc1ccc(N2CC(NC(=O)Cc3cccs3)CC2=O)cc1 (stereo unspecified) 4.53%
COc1ccc(NC(=O)CC2C(=O)N(c3ccc(OC)cc3)C(=O)N2Cc2ccc(OC)c(OC)c2)cc1 (stereo unspecified) 0.337%
CCOc1ccc(CCNC(=O)CCn2c(=O)c3cccn3c3ccc(F)cc32)cc1OCC 0.816%
CCOc1ccc(NC(=O)CCc2c(C)nc3c4c(C)cc(C)nc4nn3c2C)cc1 19%
CN(Cc1ccccc1)c1ccc2cc(S(=O)(=O)N3CCCCC3)ccc2n1 -17.4%
COc1ccc2cc(-c3nc(-c4ccc(N(C)C)cc4)no3)c(=O)oc2c1 5%
Cc1ccc(C)c(CSc2cn(CC(=O)N3CCCC3)c3ccccc23)c1 -3.52%
NC(=O)c1ccc(I)c([N+](=O)[O-])c1 26.2%
COc1cc(NC(=O)CSc2cc(=O)n(C)c3ccccc23)cc(OC)c1OC -41%
CC(NCc1ccc2c(c1)n(C)c(=O)n2C)c1ccccc1 (stereo unspecified) -13.2%
Cc1ccc(-c2cn3c(n2)sc2cc(C(=O)NC4CCCCCC4)ccc23)cc1 22.8%
COCCCNC(=O)C1CCN(Cc2cc3ccccc3n2Cc2cccc(Cl)c2)CC1 -4.79%
Cc1cc(C)n2nc(CNC(=O)c3cccc(N(C)C)c3)nc2n1 47.3%
CCC12CN3CC(CC)(CN(C1)C3c1c[nH]c3ccccc13)C2=O (stereo unspecified) -26.1%
COc1ccc(Br)cc1CNC(=O)C1CCN(c2nnc(-n3cccc3CNc3ccc(C)cc3)s2)CC1 -30.7%
CCn1cc(C(=O)N(C)c2cc(C)ccc2C)c2cc(OC)c(OC)cc2c1=O -11.6%
COc1cc2c(C(=O)N3CCN(c4ccc(F)cc4)CC3)cn(CC(C)C)c(=O)c2cc1OC -7.04%
CCOc1ccccc1NC(=O)C1CCCN(S(=O)(=O)c2cccs2)C1 (stereo unspecified) -19.9%
COc1ccccc1Cc1nc2ccccc2nc1SCC(=O)N1CCCCC1 -21.1%
COc1ccc(NC(=O)c2sc3nc4n(c(=O)c3c2C)CCC4)c(OC)c1 -5.51%
COc1ccc(C(=O)Nc2cccc(OCc3cc(=O)n4c5c(sc4n3)CCCC5)c2)cc1OC 1.99%
CCc1ccc(NC(=O)Cn2c(=O)n(Cc3ccc(C)cc3)c(=O)c3cccnc32)cc1 -0.318%
Cc1ccccc1C(=O)Nc1nnc(S(=O)(=O)N2CCc3ccccc32)s1 2.73%
O=C(CCS(=O)(=O)c1cc(Br)cc2c1N(C(=O)C1CC1)CC2)N1CCN(c2ccccc2)CC1 -4.14%
CNC(=O)C1CCN(C(=O)N2CC(C)Oc3ccc(Cl)cc32)CC1 (stereo unspecified) -2.6%
CCOC(=O)C1CCCN(C(=O)c2ccccc2NC(=O)c2nsc3ccccc23)C1 (stereo unspecified) 6.76%
CCOc1ccc(C2CC(=O)c3c([nH]c(C(=O)OCCOc4ccccc4)c3C)C2)cc1 (stereo unspecified) -30.8%
Cc1nnc2c3ccccc3nc(N3CCN(c4ccccc4)CC3)n12 -26.3%
O=C(c1ccc2c(c1)N(Cc1cccc(Cl)c1)C(=O)c1ccccc1S2(=O)=O)N1CCCC1 -39.3%
N#Cc1c(-c2ccccc2)cc(-c2ccccc2)nc1SCC(O)CS(=O)(=O)Cc1ccccc1 (stereo unspecified) -33.2%
O=C(Cn1cc(SCc2ccc(F)cc2)c2ccccc21)N1CCCCCC1 -11.8%
